PubChem BioAssay AID1468 (National Center for Advancing Translational Sciences (NCATS), 2008)
Out of some 280,000 compounds screened, about 1,100 (0.39%) were called active. Inconclusive means that the source gave no clear call. Such entries were picked first, then a sample of the others. Calls come from the whole dose curve; as a rule, active = well fitted inhibition curve with a large enough effect; inconclusive = small, poorly fitted or top-dose-only effect, or effect the other way; inactive = flat fitted curve, though single readings scatter. No potency is given beside an inconclusive call; the fits are too rough.

target: Microtubule-associated protein tau (Homo sapiens) (UniProt P10636); assay: qHTS for Inhibitors of Tau Fibril Formation, Fluorescence Polarization; settings: K18 P301L tau heparin fibrillization, Alexa594 FP, 6 h; series mostly up to 57.7 µM; note: nearly all actives have a fitted effect of over 55% in size
UniProt P10636, sequence (P10636 whole entry, looked up): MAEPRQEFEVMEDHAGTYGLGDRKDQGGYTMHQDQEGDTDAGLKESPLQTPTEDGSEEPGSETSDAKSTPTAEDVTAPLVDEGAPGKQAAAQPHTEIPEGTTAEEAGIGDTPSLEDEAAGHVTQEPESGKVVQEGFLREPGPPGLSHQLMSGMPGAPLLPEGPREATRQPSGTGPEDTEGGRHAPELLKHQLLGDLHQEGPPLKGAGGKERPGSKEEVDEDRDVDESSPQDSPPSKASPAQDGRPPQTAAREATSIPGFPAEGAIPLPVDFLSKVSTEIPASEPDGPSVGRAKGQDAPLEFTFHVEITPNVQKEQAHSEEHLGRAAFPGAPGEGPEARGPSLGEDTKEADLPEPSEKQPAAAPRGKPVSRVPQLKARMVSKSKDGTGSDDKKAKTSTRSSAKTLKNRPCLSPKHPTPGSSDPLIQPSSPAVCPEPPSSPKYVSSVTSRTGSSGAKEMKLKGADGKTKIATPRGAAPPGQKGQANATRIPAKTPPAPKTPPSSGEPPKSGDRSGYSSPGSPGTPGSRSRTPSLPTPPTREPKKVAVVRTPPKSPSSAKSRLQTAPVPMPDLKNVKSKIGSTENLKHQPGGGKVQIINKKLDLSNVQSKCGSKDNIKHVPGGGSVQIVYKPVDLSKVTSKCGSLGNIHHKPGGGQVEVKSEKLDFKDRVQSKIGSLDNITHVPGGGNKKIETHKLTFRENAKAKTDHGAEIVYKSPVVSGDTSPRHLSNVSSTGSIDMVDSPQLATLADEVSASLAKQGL
How it was run: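 Recombinant K18 P301L […], labeled with Alexa 594 at 0.24 uM over 15 uM unlabeled; heparin inducer 20 uM final; 37 C, 6 hr; FP endpoint.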
Potency is the fitted concentration of half-maximal effect; tags give direction and shape of the fitted curve.

Row | Compound | Potency
1 | CCN(CC)c1nc(-c2ccccc2)ncc1S(=O)(=O)c1ccc(C)cc1 | inactive
2 | CCN1C(=O)[C@H]2[C@H]3[C@H](O)[C@H](O)C/C(=N/OC)[C@@H]3CC[C@@H]2C1=O | inconclusive [inhibitor, full curve, poor fit]
3 | Cc1cnc(NC(=O)c2cc3c(C)nn(-c4ccccc4)c3s2)s1 | inconclusive [inhibitor, partial curve, poor fit]
4 | COc1cccc(C2N(c3cccc(Cl)c3)C(=O)C3CCCN32)c1 (stereo not drawn) | inactive
5 | CN(C(=O)CSc1nc2ccc(NC(=O)c3cccc(F)c3)cc2s1)c1ccccc1 | inconclusive [inhibitor, partial curve]
6 | Cc1cc(F)ccc1NC(=O)c1csc2c1CCC(C)C2 (stereo not drawn) | inconclusive [inhibitor, partial curve]
7 | COc1ccc(C(=O)Nc2ccccc2C(=O)N2CCCCC2C)cc1 (stereo not drawn) | inactive
8 | S=C(NCc1ccco1)Nc1ccc(Cl)c(Cl)c1 | inconclusive [inhibitor, partial curve, poor fit]
9 | CCOC(=O)N1CC=C2C(C#N)=C(N)C(C#N)(C#N)[C@H](c3ccc(OC(C)C)c(OCC)c3)[C@H]2C1 | inconclusive [inhibitor, single point]
10 | O=C(c1ccc2ccccc2n1)N1CCN(c2ccccc2O)CC1 | inactive
11 | CS(=O)c1nc(-c2ccc(Br)cc2)cc(-c2ccccc2)c1C#N (stereo not drawn) | inconclusive [inhibitor, partial curve, poor fit]
12 | CC1=C(C(=O)OCc2ccccc2)C(c2ccoc2)C(C#N)=C(N)O1 (stereo not drawn) | inconclusive [inhibitor, single point]
13 | Cc1ccc(-n2[nH]c(C)c(/C=N/n3c(C)nc4ccccc4c3=O)c2=O)cc1 | inconclusive [inhibitor, partial curve]
14 | CCC(=O)N1c2ccccc2NC2=C(C(=O)CCC2)C1c1ccc(N(C)C)cc1 (stereo not drawn) | inconclusive [inhibitor, single point]
15 | O=C1CSc2ccc(C(=O)Nc3cccc(S(=O)(=O)Nc4ccc(Br)cc4)c3)cc2N1 | active: 17.8 µM
16 | CCOc1ccc(/C=C/c2nc(C#N)c(N3CCN(CC)CC3)o2)cc1 | inconclusive [activator, single point]
17 | N/C(Cn1cncn1)=N\OC(=O)c1ccc(Cl)cc1 | inconclusive [inhibitor, single point]
18 | COc1ccc(-c2noc(C(=O)NCc3ccccc3Cl)n2)cc1OC | inconclusive [inhibitor, single point]
